Data as given in US20150017162A1 (OMEROS, published 2015).

T1: human MASP-1 (human, UniProt P48740 20-699)
T1 sequence: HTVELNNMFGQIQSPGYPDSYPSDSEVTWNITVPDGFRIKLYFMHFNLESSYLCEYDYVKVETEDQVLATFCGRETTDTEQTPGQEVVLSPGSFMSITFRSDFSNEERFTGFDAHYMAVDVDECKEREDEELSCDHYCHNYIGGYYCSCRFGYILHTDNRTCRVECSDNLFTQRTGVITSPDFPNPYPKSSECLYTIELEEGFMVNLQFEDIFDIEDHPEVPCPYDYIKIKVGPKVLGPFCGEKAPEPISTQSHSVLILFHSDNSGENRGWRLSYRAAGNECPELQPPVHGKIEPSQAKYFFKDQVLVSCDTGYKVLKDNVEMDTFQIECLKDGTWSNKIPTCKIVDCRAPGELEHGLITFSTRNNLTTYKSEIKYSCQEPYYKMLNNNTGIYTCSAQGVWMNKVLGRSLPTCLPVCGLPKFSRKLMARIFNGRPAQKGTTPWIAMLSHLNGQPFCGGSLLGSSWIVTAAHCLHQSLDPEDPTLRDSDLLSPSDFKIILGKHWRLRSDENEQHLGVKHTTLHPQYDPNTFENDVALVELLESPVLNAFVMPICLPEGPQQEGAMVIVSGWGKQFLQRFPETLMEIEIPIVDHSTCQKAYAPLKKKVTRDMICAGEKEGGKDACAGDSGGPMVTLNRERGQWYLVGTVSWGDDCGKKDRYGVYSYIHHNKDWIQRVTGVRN


Key:
human MASP-1 = biological target: T1, human MASP-1; experiment: cell-based or functional assay
human MASP-2 = human MASP-2 (human, UniProt O00187 16-686); experiment: cell-based or functional assay
Sequence of human MASP-2 (O00187 16-686): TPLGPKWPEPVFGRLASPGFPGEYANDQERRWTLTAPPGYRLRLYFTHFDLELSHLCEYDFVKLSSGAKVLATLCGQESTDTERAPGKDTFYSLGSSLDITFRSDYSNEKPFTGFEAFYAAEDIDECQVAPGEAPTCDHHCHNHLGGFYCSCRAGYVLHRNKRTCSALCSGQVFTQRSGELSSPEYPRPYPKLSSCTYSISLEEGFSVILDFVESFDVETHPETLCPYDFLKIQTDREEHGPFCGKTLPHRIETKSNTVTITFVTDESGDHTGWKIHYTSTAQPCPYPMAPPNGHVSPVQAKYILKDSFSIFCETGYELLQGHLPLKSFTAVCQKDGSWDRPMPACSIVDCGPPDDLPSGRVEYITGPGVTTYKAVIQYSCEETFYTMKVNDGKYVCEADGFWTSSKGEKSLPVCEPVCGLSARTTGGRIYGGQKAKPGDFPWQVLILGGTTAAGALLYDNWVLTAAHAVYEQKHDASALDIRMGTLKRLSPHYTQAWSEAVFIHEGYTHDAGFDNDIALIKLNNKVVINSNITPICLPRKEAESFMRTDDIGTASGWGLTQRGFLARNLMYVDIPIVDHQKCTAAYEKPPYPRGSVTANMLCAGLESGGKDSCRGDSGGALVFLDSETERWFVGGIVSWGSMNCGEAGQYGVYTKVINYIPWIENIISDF

Binder | IC50, C3b deposition from 1% normal human serum on mannan-coated ELISA wells (human MASP-1) | IC50, C3b deposition from 1% normal human serum on mannan-coated ELISA wells (human MASP-2)
SGMI-1Fc (Fc fusion) LEVTCEPGTTFKDKCNTCRCGSDGKSAFCTRKLCYQGTGGGSGSSSRS[not shown - human IgG1 Fc] | ~27 nM | –
SGMI-2Fc (Fc fusion) LEVTCEPGTTFKDKCNTCRCGSDGKSAVCTKLWCNQGTGGGSGSSSRS[not shown - human IgG1 Fc] | – | ~300 nM
